The entries are a selection whose mix differs from that of the whole data set. The list includes weakly bound sequences.

Test in all cases: protein-binding microarray (PBM)
Holding throughout (conditions): PBM: ~300 nM protein, 6 mM HEPES pH 7.8, 80 mM KCl, 0.5 mM EDTA, 0.5 mM EGTA, 6% glycerol, 35 ng/ul poly-dIdC, 1% milk, 1 h, room temperature; Ap Aiptasia and Nv Nematostella (sea anemones) / Co Capsaspora / Aq Amphimedon (sponge) / Dm Drosophila / Hu human; RHD is the Rel homology domain; high values mean tight binding; most listed sequences are background and not binding sites; double strand, one strand shown

One assay has as its target T1, GST-Ap-NF-kB RHD (UniProt A0A913YAJ5).
T1 sequence: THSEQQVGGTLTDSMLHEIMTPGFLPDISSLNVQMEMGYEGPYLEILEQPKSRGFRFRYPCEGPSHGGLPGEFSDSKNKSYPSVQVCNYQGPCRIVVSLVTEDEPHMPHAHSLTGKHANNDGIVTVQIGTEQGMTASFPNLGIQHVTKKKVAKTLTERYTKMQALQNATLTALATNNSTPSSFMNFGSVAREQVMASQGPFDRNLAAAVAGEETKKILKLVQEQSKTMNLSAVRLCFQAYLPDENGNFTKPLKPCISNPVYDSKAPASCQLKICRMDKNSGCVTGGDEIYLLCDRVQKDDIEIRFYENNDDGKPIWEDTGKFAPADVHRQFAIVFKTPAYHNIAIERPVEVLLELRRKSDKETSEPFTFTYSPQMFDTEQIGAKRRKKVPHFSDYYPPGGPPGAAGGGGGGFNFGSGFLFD

For assay [1], the target named is T2, GST-Nv-NF-kB (Cys allele) (UniProt E5G601).
T2 sequence: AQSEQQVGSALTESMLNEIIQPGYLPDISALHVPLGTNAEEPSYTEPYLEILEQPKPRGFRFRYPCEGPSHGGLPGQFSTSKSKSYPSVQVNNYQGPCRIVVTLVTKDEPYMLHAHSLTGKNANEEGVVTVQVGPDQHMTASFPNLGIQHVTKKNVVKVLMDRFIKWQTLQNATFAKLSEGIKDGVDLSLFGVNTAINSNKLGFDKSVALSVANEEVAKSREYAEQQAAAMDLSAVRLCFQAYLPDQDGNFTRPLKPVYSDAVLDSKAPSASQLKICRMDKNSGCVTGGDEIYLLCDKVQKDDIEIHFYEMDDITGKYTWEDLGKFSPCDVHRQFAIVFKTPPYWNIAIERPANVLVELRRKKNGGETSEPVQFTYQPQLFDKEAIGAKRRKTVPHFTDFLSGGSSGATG

Another assay deals with T3, GST-Co-NF-kB (UniProt F1ARL5).
T3 sequence: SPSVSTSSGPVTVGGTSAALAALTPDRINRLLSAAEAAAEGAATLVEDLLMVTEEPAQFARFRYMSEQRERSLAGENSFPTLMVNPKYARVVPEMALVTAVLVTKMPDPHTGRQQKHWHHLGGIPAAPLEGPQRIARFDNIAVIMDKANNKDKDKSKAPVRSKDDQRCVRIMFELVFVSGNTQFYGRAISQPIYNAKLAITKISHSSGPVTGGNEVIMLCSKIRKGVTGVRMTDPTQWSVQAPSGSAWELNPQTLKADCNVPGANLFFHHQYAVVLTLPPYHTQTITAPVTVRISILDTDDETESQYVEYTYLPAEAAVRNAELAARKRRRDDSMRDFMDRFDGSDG

For the next assay, the target named is T4, GST-Dm-Relish (UniProt Q94527).
T4 sequence: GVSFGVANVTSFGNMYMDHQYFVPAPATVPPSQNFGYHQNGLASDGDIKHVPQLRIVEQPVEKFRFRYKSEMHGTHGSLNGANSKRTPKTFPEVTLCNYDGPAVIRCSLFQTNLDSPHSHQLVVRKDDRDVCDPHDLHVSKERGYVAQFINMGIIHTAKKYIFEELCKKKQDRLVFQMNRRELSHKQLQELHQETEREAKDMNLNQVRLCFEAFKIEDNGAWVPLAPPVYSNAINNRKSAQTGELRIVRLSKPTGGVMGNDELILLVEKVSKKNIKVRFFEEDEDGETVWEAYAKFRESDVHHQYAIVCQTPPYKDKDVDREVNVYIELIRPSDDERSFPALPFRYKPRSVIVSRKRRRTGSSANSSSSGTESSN

The target in a further assay is T5, GST-Aq-NF-kB (UniProt A9Y5G7).
T5 sequence: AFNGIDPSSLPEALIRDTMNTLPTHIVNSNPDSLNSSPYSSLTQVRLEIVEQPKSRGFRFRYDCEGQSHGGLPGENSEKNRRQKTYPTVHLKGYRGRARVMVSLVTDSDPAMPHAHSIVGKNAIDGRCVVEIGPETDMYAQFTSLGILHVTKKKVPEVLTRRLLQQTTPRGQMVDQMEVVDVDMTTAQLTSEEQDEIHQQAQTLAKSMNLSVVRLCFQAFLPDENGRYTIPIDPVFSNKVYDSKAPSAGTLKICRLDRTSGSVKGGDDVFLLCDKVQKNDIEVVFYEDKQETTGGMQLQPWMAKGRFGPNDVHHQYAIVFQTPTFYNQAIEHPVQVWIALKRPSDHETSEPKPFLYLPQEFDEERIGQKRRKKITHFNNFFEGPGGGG

As to “CCGATTAACATCAAAAACAGCATTGATGTTAATCGGGTCTTGATTCGCTTGACGCTGCTG”, the binding signal with GST-Ap-NF-kB RHD was -0.936 z-score; in assay [1] it was -0.0965 z-score; with GST-Co-NF-kB, -0.0286 z-score; in the assay with GST-Dm-Relish, -0.151 z-score; with GST-Aq-NF-kB, -0.495 z-score.

On to “CCGATTAACATCACTATTGTACATGATGTTAATCGGGTCTTGATTCGCTTGACGCTGCTG”, for which the binding signal is -0.282 z-score with GST-Ap-NF-kB RHD; -0.803 z-score in assay [1]; 0.378 z-score with GST-Co-NF-kB; 1.29 z-score with GST-Dm-Relish; -0.234 z-score with GST-Aq-NF-kB.

As to “CCGATTAACATCAAGCTTTCATCTGATGTTAATCGGGTCTTGATTCGCTTGACGCTGCTG”, the binding signal with GST-Ap-NF-kB RHD was -0.135 z-score; in assay [1], 0.0752 z-score; with GST-Co-NF-kB it was -1.39 z-score; with GST-Dm-Relish it was -0.226 z-score; in the assay with GST-Aq-NF-kB it was -0.577 z-score.

In the case of “CCGATTAACATCACATTGTGATCTGATGTTAATCGGGTCTTGATTCGCTTGACGCTGCTG”, the binding signal with GST-Ap-NF-kB RHD is -0.871 z-score; in assay [1] it was -0.382 z-score; with GST-Co-NF-kB it was -0.746 z-score; with GST-Dm-Relish, -0.109 z-score; with GST-Aq-NF-kB, -0.536 z-score.

Turning to “CCGATTAACATCATGGACTGCTTTGATGTTAATCGGGTCTTGATTCGCTTGACGCTGCTG”, the binding signal with GST-Ap-NF-kB RHD is -0.344 z-score; in assay [1] it was -0.28 z-score; in the assay with GST-Co-NF-kB, -0.149 z-score; in the assay with GST-Dm-Relish, -0.581 z-score; with GST-Aq-NF-kB it was -0.466 z-score.

Turning to “CCGATTAACATCACGCTGCACGCTGATGTTAATCGGGTCTTGATTCGCTTGACGCTGCTG”, the binding signal is -0.309 z-score with GST-Ap-NF-kB RHD; -0.689 z-score in assay [1]; -1.03 z-score with GST-Co-NF-kB; -0.233 z-score in the assay with GST-Dm-Relish; -0.241 z-score with GST-Aq-NF-kB.

As to “CCGATTAACATCAGGAATTAACATGATGTTAATCGGGTCTTGATTCGCTTGACGCTGCTG”, the binding signal with GST-Ap-NF-kB RHD was -0.323 z-score; in assay [1], -0.0529 z-score; with GST-Co-NF-kB, -0.168 z-score; in the assay with GST-Dm-Relish it was 0.621 z-score; in the assay with GST-Aq-NF-kB, 0.0645 z-score.

As for “CCGATTAACATCAGAACGGTTAATGATGTTAATCGGGTCTTGATTCGCTTGACGCTGCTG”, the binding signal with GST-Ap-NF-kB RHD is 0.301 z-score; in assay [1], 0.121 z-score; in the assay with GST-Co-NF-kB, 0.446 z-score; with GST-Dm-Relish, -0.456 z-score; with GST-Aq-NF-kB, -0.143 z-score.

Turning to “CCGATTAACATCAGCTTCGAGTCTGATGTTAATCGGGTCTTGATTCGCTTGACGCTGCTG”, the binding signal with GST-Ap-NF-kB RHD is -0.336 z-score; in assay [1], -0.781 z-score; in the assay with GST-Co-NF-kB it was -1.18 z-score; in the assay with GST-Dm-Relish it was -1.28 z-score; with GST-Aq-NF-kB it was -0.679 z-score.

For the sequence “CCGATTAACATCACGGCCTTTCCTGATGTTAATCGGGTCTTGATTCGCTTGACGCTGCTG”, the binding signal in the assay with GST-Ap-NF-kB RHD is 0.226 z-score; in assay [1], -0.373 z-score; in the assay with GST-Co-NF-kB, -0.51 z-score; with GST-Dm-Relish it was 1.05 z-score; with GST-Aq-NF-kB, 1.82 z-score.

With “CCGATTAACATCACGAGTCGAGATGATGTTAATCGGGTCTTGATTCGCTTGACGCTGCTG”, the binding signal in the assay with GST-Ap-NF-kB RHD is -0.239 z-score; in assay [1] it was -0.25 z-score; with GST-Co-NF-kB, -0.386 z-score; with GST-Dm-Relish, -0.562 z-score; with GST-Aq-NF-kB, -0.749 z-score.

In the case of “CCGATTAACATCAATGATGTAATTGATGTTAATCGGGTCTTGATTCGCTTGACGCTGCTG”, the binding signal in the assay with GST-Ap-NF-kB RHD was -0.923 z-score; in assay [1], -0.557 z-score; with GST-Co-NF-kB, -0.904 z-score; in the assay with GST-Dm-Relish it was 0.191 z-score; with GST-Aq-NF-kB, -0.365 z-score.

Consider “CCGATTAACATCATTACGCCACGTGATGTTAATCGGGTCTTGATTCGCTTGACGCTGCTG”, for which the binding signal with GST-Ap-NF-kB RHD was -0.234 z-score; in assay [1], 0.149 z-score; with GST-Co-NF-kB it was 0.444 z-score; with GST-Dm-Relish, -0.42 z-score; in the assay with GST-Aq-NF-kB, -0.455 z-score.

With “CCGATTAACATCATTTGGACTTATGATGTTAATCGGGTCTTGATTCGCTTGACGCTGCTG”, the binding signal in the assay with GST-Ap-NF-kB RHD was -0.69 z-score; in assay [1] it was -0.835 z-score; in the assay with GST-Co-NF-kB it was -0.462 z-score; with GST-Dm-Relish, -0.346 z-score; in the assay with GST-Aq-NF-kB, 0.0798 z-score.

Values taken from publication PMC5700166.
